Test results: the antibiotic and cytotoxicity screens of Wong et al. (2023)
The list shows a part of the results.

System: S. aureus RN4220
Experiment: growth inhibition call (relative growth <= 0.2)
Conditions: 50 µM

Growth inhibition call, inactive:
COc1cccc(C#Cc2ccc3c(c2)O[C@H](CN(C)C(=O)c2ccccn2)[C@H](C)CN([C@@H](C)CO)S3(=O)=O)c1
C[C@H]1CN([C@@H](C)CO)C(=O)CCCn2nncc2CO[C@H]1CN(C)C(=O)c1ccc(N2CCN(C)CC2)cc1
COc1ccc(NC(=O)Nc2ccc3c(c2)C(=O)N([C@H](C)CO)C[C@H](C)[C@@H](CN(C)CC2CCCCC2)OCCCC[C@H](C)O3)cc1
CCc1nc2ccc(C(=O)N3CCN(c4ccccc4)CC3)cn2c1N(CC)Cc1cccc(Br)c1
COc1ccccc1-c1ccc2c(c1)O[C@H](CN(C)C(=O)c1cccnc1)[C@@H](C)CN([C@@H](C)CO)S2(=O)=O
Cc1ccc(-c2cnc3c(c2)C(=O)N([C@@H](C)CO)C[C@@H](C)[C@@H](CN(C)C(=O)Cc2cccnc2)O3)cc1
C[C@H](C(=O)NC1CCCC1)N(C(=O)Cn1nnc(-c2ccc3c(c2)OC(F)(F)O3)n1)C1CCCCC1
C[C@@H]1CCCCO[C@H](CN(C)C(=O)Nc2ccc(C(F)(F)F)cc2)[C@H](C)CN([C@H](C)CO)C(=O)c2cc(NC(=O)C3CCCCC3)ccc2O1
CO[C@@H]1CN(C)C(=O)c2cc(NC(=O)NC3CCCCC3)ccc2OC[C@@H](C)N(CCc2ccccc2)C[C@H]1C
CC(C)NC(=O)N[C@H]1C=C[C@@H](CC(=O)NCCCN(C)C)O[C@@H]1CO
COc1ccc(S(=O)(=O)N(C)C[C@@H]2Oc3ccc(NS(=O)(=O)c4ccc(F)cc4)cc3CC(=O)N([C@@H](C)CO)C[C@@H]2C)cc1
C[C@H]1CN([C@@H](C)CO)C(=O)Cc2cc(NS(C)(=O)=O)ccc2O[C@@H]1CN(C)Cc1ccc(C(=O)Nc2ccccc2N)cc1
COc1ccc([Si](C)(C)[C@H]2[C@H](CC(=O)N(CCO)Cc3ccccc3)O[C@@]3(C(=O)N(Cc4cccc(N5CCCCC5=O)c4)c4ccccc43)[C@@H]2C)cc1
CC1=NCC[C@@H](C(=O)O)N1
CCCCOc1ccc(C(=O)CCN2CCCCC2)cc1.Cl
Oc1c(I)cc(Cl)c2cccnc12
C[C@@H]1CN([C@H](C)CO)C(=O)c2cc(NC(=O)Cn3cnnn3)ccc2O[C@H]1CN(C)S(C)(=O)=O
C[C@@H]1CN([C@H](C)CO)C(=O)Cc2cc(NC(=O)Nc3ccc(F)cc3)ccc2O[C@@H]1CN(C)Cc1ccc(Oc2ccccc2)cc1
Cc1cc(C)n(N)c(=O)c1C(=O)O
COc1ccc2c3c(n(c2c1)C)[C@H](CO)N(C[C@]13CCN(CC1)S(=O)(=O)c1cn(cn1)C)C(=O)Nc1ccc(cc1)F
COc1ccc(NC(=O)N(C)C[C@@H]2OCCCC[C@@H](C)Oc3ccc(NC(=O)NC(C)C)cc3C(=O)N([C@H](C)CO)C[C@H]2C)cc1
C[C@H](CO)N1C[C@H](C)[C@H](CN(C)C(=O)NC2CCCCC2)OCCCC[C@H](C)Oc2ccc(NC(=O)Nc3ccc4c(c3)OCO4)cc2C1=O
CCNC(=O)C[C@H]1C=C[C@@H](NC(=O)C2CC2)[C@@H](CO)O1
Cc1cc(C)nc(SCC(=O)NN)n1
COCC(=O)Nc1ccc2c(c1)OC[C@@H](C)N(Cc1cccc(F)c1)C[C@H](C)[C@@H](OC)CN(C)C2=O
Cc1noc(C)c1S(=O)(=O)Nc1ccc2c(c1)C(=O)N([C@H](C)CO)C[C@H](C)[C@@H](CN(C)S(C)(=O)=O)OCCCC[C@@H](C)O2
O=C(C[C@H]1CC=CC[C@@H](Cc2ccc(F)cc2)C(=O)OC[C@H](Cc2c[nH]c3ccccc23)NC1=O)NCCO
Cc1ccc(S(=O)(=O)Nc2ccc3c(c2)C(=O)N([C@H](C)CO)C[C@@H](C)[C@H](CN(C)S(=O)(=O)c2ccc(C)cc2)OCCCC[C@H](C)O3)cc1
C[C@H]1CCCCO[C@H](CN(C)Cc2ccc(C(F)(F)F)cc2)[C@@H](C)CN([C@@H](C)CO)C(=O)c2cc(NC(=O)C3CCCCC3)ccc2O1
COc1ccc(S(=O)(=O)N(C)C[C@H]2OCCCC[C@H](C)Oc3ccc(NS(C)(=O)=O)cc3C(=O)N([C@H](C)CO)C[C@@H]2C)cc1
O=C(NCCCN1CCOCC1)[C@H]1[C@H](CO)[C@H]2Cn3c(ccc(C4=CCCCC4)c3=O)[C@@H]1N2
CCOC(=O)CCCCCC(=O)Nc1ccc2c(c1)C(=O)N([C@@H](C)CO)C[C@H](C)[C@H](CN(C)S(C)(=O)=O)O2
Cc1ccc(-c2ccc(N)cc2)cc1
C[C@@H]1CCCCO[C@@H](CN(C)C(=O)Nc2ccccc2)[C@H](C)CN([C@H](C)CO)C(=O)c2cc(NC(=O)Nc3ccccc3)ccc2O1
COc1ccc(C#Cc2ccc3c(c2)[C@]2(C(=O)N3)[C@H](C(=O)O)[C@H]3C(=O)O[C@H](c4ccccc4)[C@H](c4ccccc4)N3[C@@H]2c2ccc(O)cc2)cc1
CCCNC(=O)C[C@@H]1CC[C@H]2[C@@H](COc3ccc(NC(=O)c4ccc5c(c4)OCO5)cc3C(=O)N2C)O1
C[C@H](CO)N1C[C@H](C)[C@H](CN(C)C(=O)c2ccncc2)Oc2cc(C#CC3(O)CCCC3)ccc2S1(=O)=O
C[C@H]1CCCCO[C@@H](CN(C)S(=O)(=O)c2ccccc2)[C@@H](C)CN([C@@H](C)CO)C(=O)c2cc(NS(=O)(=O)c3cn(C)cn3)ccc2O1
Cc1noc(C)c1S(=O)(=O)Nc1ccc2c(c1)CC(=O)N([C@@H](C)CO)C[C@@H](C)[C@@H](CN(C)Cc1ccncc1)O2
Cc1noc(C)c1NC(=O)N(C)C[C@H]1Oc2ccc(NS(=O)(=O)c3cccs3)cc2CC(=O)N([C@H](C)CO)C[C@H]1C
